Results taken from EPA's CvTdb concentration-time database.
This continues a long series; more values of the same kind are listed elsewhere.

Experiments:
Rat [1] = assay: concentration in plasma after dosing; settings: 8 h; dosed: 2-Methyltetrahydrofuran; 400 mg/kg; oral; Female; Harlan Sprague Dawley
Rat [2] = assay: concentration in brain after dosing; settings: 10 min; dosed: 2-Methyltetrahydrofuran; 400 mg/kg; oral; Female; Harlan Sprague Dawley
Rat [3] = assay: concentration in brain after dosing; settings: 1.5 h; dosed: 2-Methyltetrahydrofuran; 400 mg/kg; oral; Female; Harlan Sprague Dawley
Rat [4] = assay: concentration in brain after dosing; settings: 1 h; dosed: 2-Methyltetrahydrofuran; 10 mg/kg; iv; Male; F344
Rat [5] = assay: concentration in brain after dosing; settings: 1.5 h; dosed: 2-Methyltetrahydrofuran; 400 mg/kg; oral; Female; Harlan Sprague Dawley; remark: listed apart in the source
Rat [6] = assay: concentration in plasma after dosing; settings: 1.5 h; dosed: 2-Methyltetrahydrofuran; 10 mg/kg; oral; Male; F344
Rat [7] = assay: concentration in brain after dosing; settings: 2 h; dosed: 2-Methyltetrahydrofuran; 30 mg/kg; oral; Male; F344
Rat [8] = assay: concentration in plasma after dosing; settings: 20 min; dosed: 2-Methyltetrahydrofuran; 10 mg/kg; iv; Female; F344
Rat [9] = assay: concentration in brain after dosing; settings: 2 min; dosed: 2-Methyltetrahydrofuran; 30 mg/kg; oral; Female; F344
Rat [10] = assay: concentration in plasma after dosing; settings: 6 h; dosed: 2-Methyltetrahydrofuran; 400 mg/kg; oral; Male; F344
Rat [11] = assay: concentration in brain after dosing; settings: 1.5 h; dosed: 2-Methyltetrahydrofuran; 30 mg/kg; oral; Female; F344
Rat [12] = assay: concentration in plasma after dosing; settings: 1.5 h; dosed: 2-Methyltetrahydrofuran; 400 mg/kg; oral; Female; Harlan Sprague Dawley
Rat [13] = assay: concentration in brain after dosing; settings: 0.75 h; dosed: 2-Methyltetrahydrofuran; 30 mg/kg; oral; Female; F344
Rat [14] = assay: concentration in plasma after dosing; settings: dosed: Bromochloroacetic acid, 100 mg/kg, oral, Female, F344
Rat [15] = assay: concentration in plasma after dosing; settings: dosed: Bromochloroacetic acid, 100 mg/kg, oral, Female, F344; remark: listed apart in the source
Rat [16] = assay: concentration in plasma after dosing; settings: 0.5 h; dosed: Fluorotelomer alcohol 8+2; 160 mg/kg; oral; Female; Harlan Sprague Dawley
Rat [17] = assay: concentration in plasma after dosing; settings: dosed: Fluorotelomer alcohol 8+2, 160 mg/kg, oral, Female, Harlan Sprague Dawley
Rat [18] = assay: concentration in plasma after dosing; settings: dosed: Fluorotelomer alcohol 8+2, 80 mg/kg, oral, Female, Harlan Sprague Dawley
Rat [19] = assay: concentration in plasma after dosing; settings: dosed: Formamide, 90 mg/kg, iv, Male, Harlan Sprague Dawley
Rat [20] = assay: concentration in plasma after dosing; settings: dosed: Formamide, 300 mg/kg, oral, Male, F344
Rat [21] = assay: concentration in plasma after dosing; settings: 2 h; dosed: Pyridine; 200 mg/kg; oral; Female; F344
Rat [22] = assay: concentration in plasma after dosing; settings: 2 h; dosed: Pyridine; 10 mg/kg; oral; Male; F344

`CC1CCCO1` (stereo not drawn) [2-Methyltetrahydrofuran] was tested, and the concentration in plasma (Rat [1]) was 68000 ng/mL, the concentration in brain (Rat [2]) was 238 µg/g and the concentration in brain (Rat [3]) was 94.1 µg/g. For the same molecule, the concentration in brain (Rat [4]) was 1.76 µg/g, the concentration in brain (Rat [5]) was 105 µg/g and the concentration in plasma (Rat [6]) was 454 ng/mL. It also gave a concentration in brain (Rat [7]) of 2.42 µg/g, a concentration in plasma (Rat [8]) of 6380 ng/mL and a concentration in brain (Rat [9]) of 5.61 µg/g. It also gave a concentration in plasma (Rat [10]) of 94300 ng/mL, a concentration in brain (Rat [11]) of 1.73 µg/g and a concentration in plasma (Rat [12]) of 169000 ng/mL. It also gave a concentration in brain (Rat [13]) of 2.58 µg/g.

In the case of `O=C(O)C(Cl)Br` (stereo not drawn) [Bromochloroacetic acid], the concentration in plasma (Rat [14]; 10 min) is reported as 12800 ng/mL, the concentration in plasma (Rat [14]; 4.5 h) is reported as 5290 ng/mL and the concentration in plasma (Rat [15]; 5 min) is reported as 7460 ng/mL. It also gave a concentration in plasma (Rat [15]; 3 h) of 8610 ng/mL.

With `OCCC(F)(F)C(F)(F)C(F)(F)C(F)(F)C(F)(F)C(F)(F)C(F)(F)C(F)(F)F` [Fluorotelomer alcohol 8+2] the concentration in plasma (Rat [16]) was 506 ng/mL, the concentration in plasma (Rat [17]; 5 min) was 52.7 ng/mL and the concentration in plasma (Rat [17]; 3 h) was 2390 ng/mL. For the same molecule, the concentration in plasma (Rat [18]; 0.75 h) was 690 ng/mL and the concentration in plasma (Rat [18]; 48 h) was 1.87 ng/mL.

For `NC=O` [Formamide], the concentration in plasma (Rat [19]; 8 h) was 98600 ng/mL, the concentration in plasma (Rat [19]; 12 h) was 86900 ng/mL and the concentration in plasma (Rat [20]; 0.25 h) was 194000 ng/mL. The concentration in plasma (Rat [20]; 5 h) was 254000 ng/mL.

With `c1ccncc1` [Pyridine] the concentration in plasma (Rat [21]) was 56200 ng/mL and the concentration in plasma (Rat [22]) was 646 ng/mL.
